Data published in PMC12136788.
The other results are listed elsewhere or left out.

B1: chr10:62092816:62092917:+|CDS|ENSG00000150347|msi1|total|mutant (ssRNA)
RNA: GGGAGUUCUACAGUCCGACGAUCUUUUACAUCACCGACAAAUUCUCAGCAGCUGUACAGACACUUGGCUGCGGCUACACCUGCCGGAAGUUCAUAUGGGGACCUUUUGCAUAACAGCAUUUACCCUUCCGCUGCUAUAAAUCCCAACAGAGGAUUGAGCAUCA
B2: chr6:112122013:112122201:-|CDS|ENSG00000112769|control|control|control (ssRNA)
RNA: GGGAGUUCUACAGUCCGACGAUCCCCAGAGCGGAAUACUCCAAGAAACUCUCAUUGCCACCUUUCCAACAGCCCUAGAGCAAUAGAGCACGCCUAUCAAUAUGGAGGAACAGCCAACAGCCGCCAAGAGUUUGAACACUUAAACAACAGAGGAUUGAGCAUCA
B3: chrX:42777473:42778079:-|CDS|ENSG00000102055|control|control|control (ssRNA)
RNA: GGGAGUUCUACAGUCCGACGAUCCGGCAGUUCGAAAUGAGAAGAAGGCUUCACUACAACGAAGAAUUGAACAUCAAAUUAGCUAGACAAUUAAUGUGGAAAGAGCUACAAAGUGAAGAUAAUGAAAACGAAGAAACGCCACAACAACAGAGGAUUGAGCAUCA
B4: chr5:37333503:37333606:-|CDS|ENSG00000113569|unk|FALSE|unique (ssRNA)
RNA: GGGAGUUCUACAGUCCGACGAUCGAUGACAGCUGGUGUUGAUGGUCAUUCCUGGGCUCUUUCUGCGAUAGAUGAAUUGAAAGUAGAUAAAAUAAUUACACCUUUAAACAAGGAUCAUAUUCCAAUAACUGAUUCACCAGUUGUCAACAGAGGAUUGAGCAUCA
B5: chr17:64039079:64045293:-|three_prime_utr|ENSG00000178607|control|control|control (ssRNA)
RNA: GGGAGUUCUACAGUCCGACGAUCUUUCUUGGGUGUGUCCUCUGUGGUUUGGUUACACUGAUGUGUGUUUCAUUUUUGUUCCCUAGAGUGACAGGUGAGUGAUGGUGUCGUGCUCUAGGUGGUCAUUUCUGACCUGGGUGUGAUCAACAGAGGAUUGAGCAUCA
B6: chr4:55904547:55904648:+|3pUTR|ENSG00000090989|msi1|total|mutant (ssRNA)
RNA: GGGAGUUCUACAGUCCGACGAUCAAAAUACCAAGCAACUGUUUUGAGAACCCAGACUUAAAAUUUUAUGUAUUAUUAAAUGUCCGAUAAAUGGGCCGUACCAUACUACAAAUAUUUAAAUGCAAAAUUACCAACCUAUACCGCCAACAGAGGAUUGAGCAUCA
B7: ENSG00000070961:be:win_4551|3pUTR|ENSG00000070961|bound_else_gene|NA|bound_elsewhere_windowed (ssRNA)
RNA: GGGAGUUCUACAGUCCGACGAUCAAUGAAAGAUGCUUGAAAUGCUUUUGUUAUUUCAGGCAAAUCAAAUUAAAUCAGACUAUCAAACUACAAGAGAACCUUAGUCUUUUUUGUUUUUGUCUAAACAUGUUAGUUUAGUGAUGUCAACAGAGGAUUGAGCAUCA
B8: ENSG00000136451:be:win_301|CDS|ENSG00000136451|bound_else_gene|NA|bound_elsewhere_windowed (ssRNA)
RNA: GGGAGUUCUACAGUCCGACGAUCUUGGUGUCCCGGCCAAAGAAAACCCCCACCACGGUGGUUCCCCUUAUCUCUACCAUCGCUGGGGACAGCAGCCGAACUUCGUUGGUCUCGACCAUUGCAGGCAUCUUGUCAACAGUCACUCAACAGAGGAUUGAGCAUCA
B9: ENSG00000198589:be:win_9101|3pUTR|ENSG00000198589|bound_else_gene|NA|bound_elsewhere_windowed (ssRNA)
RNA: GGGAGUUCUACAGUCCGACGAUCUUCAAGCAUGUUUUAGACCUAGAAAAGUAUGGUUUGGGGGAGGCUAUUUUAUUGUGUGGUUAGCACAAGGAAUCUAAUUUAUAGCAAGUGUGAAAUAGUUACCAUUUUUUCCUGAUCUGUCAACAGAGGAUUGAGCAUCA
B10: chr5:80438700:80438808:+|CDS|ENSG00000039319|unk|FALSE|unique (ssRNA)
RNA: GGGAGUUCUACAGUCCGACGAUCAGAUACAAUAGAAAGUGAACCCAGCACAGCAGAUACCGUUGUUCCAAUCACUUGUGCUAUAGAUUCUACAGCUGAUCCACAGGUUAGCUUCAACUCUAAUUACAUUGAUAUAGAAAGUAACAACAGAGGAUUGAGCAUCA
B11: chr4:52020705:52023956:-|three_prime_utr|ENSG00000163069|control|control|control (ssRNA)
RNA: GGGAGUUCUACAGUCCGACGAUCGUGAUAACUCAUAAUUAUUUUAAUGGCAGAGCACUGCUGUAUCUGUUUUAUGGUCUACAUAGUUAAAAUCUUCUCAGAGAGCCUAAAUUCUAAUACAUUUUAUUAAUUUAUACUAAUCUUCAACAGAGGAUUGAGCAUCA
B12: ENSG00000198589:be:win_4001|CDS|ENSG00000198589|bound_else_gene|NA|bound_elsewhere_windowed (ssRNA)
RNA: GGGAGUUCUACAGUCCGACGAUCGAAGCCAUUCAACAAAGACAGUUAUGGACUUCGUGAAUAGCAGUGAUAAUGUCAUCUUUGUACACAACACAAUUCAUCUCAUCUCUCAAGUGAUGGACAAUAUGGUCAUGGCUUGUGGGGCAACAGAGGAUUGAGCAUCA
B13: chr3:149318497:149321477:-|three_prime_utr|ENSG00000163762|control|control|control (ssRNA)
RNA: GGGAGUUCUACAGUCCGACGAUCGACAAAAUGUUUUCCAUUAUCAAGACAUGGCCAUCUAUCUAAAUAUUAUAUCAACUGUGUAGACUUGAGGGCAAUAUUGAAAUGAUGGUGCUUUCUGCAUUUGGUGUUUAUUUGUAAAAACAACAGAGGAUUGAGCAUCA
B14: chr2:45599705:45599806:-|CDS|ENSG00000068784|msi1|total|mutant (ssRNA)
RNA: GGGAGUUCUACAGUCCGACGAUCCUCAUAUGUUCUCUUUGUGGUUUGACCGAACCGCUCUGUGGCUAUUGCUGAUACUGCUUCCGAAGACAGAAAAAAUAAAUUGGAUACUGUACAGACUCUGAAAACAGCCAAGACAAAACACAACAGAGGAUUGAGCAUCA
B15: chr19:2933217:2933488:-|three_prime_utr|ENSG00000175691|control|control|control (ssRNA)
RNA: GGGAGUUCUACAGUCCGACGAUCGACCUGGGAGAGUGUUCAACCGUAAAACCUUGUUGUAAAUGUGAGAAACGUUAUUUAUGUAGAGCAUGUAGGAAAACCUGGUAUAGCACUUAUUUUGUACCUAAAAAUUCAGAGUAGGAGCAACAGAGGAUUGAGCAUCA
B16: chr15:88464702:88464876:-|CDS|ENSG00000259494|control|control|control (ssRNA)
RNA: GGGAGUUCUACAGUCCGACGAUCUGAUGAAAAGAAUGACCGAACAUCCCUGAACAGGAAGCUAGACAGGAACCUUGUCCUGUUAGUCAGAGAGAAGUUUGGAGACCAGGAUGUUUGGAUACUGCCCCAGGCAGAGUGGCAGCCCAACAGAGGAUUGAGCAUCA
B17: chr3:53865378:53865479:+|3pUTR|ENSG00000056736|unk|total|mutant (ssRNA)
RNA: GGGAGUUCUACAGUCCGACGAUCAUUACAGGGAAAAAACGUGUGAUGAUCCUGAAGCUUACUAUGCAGCCUACAAACAGCCUCCGUAAUUAAAACAUUUUAUACCAAUAAAAUUUUCAAAUAUUGCUAACUAAUGCCGCAUUACAACAGAGGAUUGAGCAUCA
B18: ENSG00000107863:be:win_6001|3pUTR|ENSG00000107863|bound_else_gene|NA|bound_elsewhere_windowed (ssRNA)
RNA: GGGAGUUCUACAGUCCGACGAUCUUGCACUGUGAAAUAGCUUUACAGUGCAUUACUACAGCCAGAAGAACAUAUAUAUAUAUAUAUAUAUUUAAAAAUAUAUCGGAUAGUUGUAUACAAAUGAGCAAGGUAUUUGUUGCAACUCAACAGAGGAUUGAGCAUCA
B19: chr6:41099391:41099486:+|3pUTR|ENSG00000001167|msi1_unk|FALSE|overlapping (ssRNA)
RNA: GGGAGUUCUACAGUCCGACGAUCAGUGCUUAAGCUGCCAACAGUUAGAAGAUGCUAUUUAUUUGUGUCUGUAAGUUUGUACAUAGUAAUGCCAGCCUUGUUGCUGAAUUUUUUAUUUGGGGGGAGAUGACUUUGAAUUUUGUUCAACAGAGGAUUGAGCAUCA
B20: chr5:150657389:150657496:+|3pUTR|ENSG00000171992|unk|FALSE|bound_elsewhere (ssRNA)
RNA: GGGAGUUCUACAGUCCGACGAUCCUCUCUCUCUCUCUCACACACACACACACACACACACACACACACACACACACACACACUAGUUAGUGCCUUGGAUGAGGCGGGGCAGUGUGUAUAUGGACCCCUGGACUUGCUACCUUCCAACAGAGGAUUGAGCAUCA
B21: chr20:11926050:11926151:+|3pUTR|ENSG00000132640|msi1|total|mutant (ssRNA)
RNA: GGGAGUUCUACAGUCCGACGAUCAUGAAAUGGAAUGAAGGCUAAUAUGCUUGCUUUAUUUACUUUUGUAAUCUUGGAUUUUGCCGCUUUUAAAACCCGAAACCAUUGUUCUAACAAAGCAGGCAACUUUAUUCUAUAAACACACAACAGAGGAUUGAGCAUCA
B22: chr5:113594843:113594944:+|3pUTR|ENSG00000047188|msi1|total|mutant (ssRNA)
RNA: GGGAGUUCUACAGUCCGACGAUCCAACAUAAAAUCUUGAGAACCUUCUACUUUCUCUGGGAAAGCAUUAUACCGUGGUGCAUCCGUUCCGAAAGUCAGCUAUGAUUUUGCCUACCGUUCCCGUUAUCCGCUUUGGGGUUUUCUCAACAGAGGAUUGAGCAUCA

Each binder was assayed against MSI1 full-length (mouse, UniProt Q61474 1-362) (assay: nsRBNS (natural sequence RNA bind-n-seq); RBNS binding buffer (assumed for nsRBNS): 25 mM Tris pH 7.5, 150 mM KCl, 3 mM MgCl2, 0.01% Triton X-100, 500 ug/ml BSA, 20 U/ml SUPERase-In, 4 C; UNK is unkempt and MSI1 is Musashi-1; names of the RNAs are library labels; protein concentration not given here; high values mean tight binding).
Sequence of UniProt Q61474 (Q61474 whole entry): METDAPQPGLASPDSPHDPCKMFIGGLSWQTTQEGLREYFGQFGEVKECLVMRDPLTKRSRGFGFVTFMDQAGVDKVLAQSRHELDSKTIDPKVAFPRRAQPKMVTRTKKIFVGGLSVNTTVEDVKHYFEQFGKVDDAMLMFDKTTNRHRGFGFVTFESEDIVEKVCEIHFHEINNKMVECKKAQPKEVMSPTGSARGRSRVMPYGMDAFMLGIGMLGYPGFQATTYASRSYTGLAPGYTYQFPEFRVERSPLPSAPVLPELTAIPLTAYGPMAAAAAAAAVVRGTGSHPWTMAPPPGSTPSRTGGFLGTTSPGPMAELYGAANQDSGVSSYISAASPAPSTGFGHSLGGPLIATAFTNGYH

| Binder | binding signal [enrichment R] |
| --- | --- |
| B1 | 0.416 |
| B2 | 0.759 |
| B3 | 2.52 |
| B4 | 4.59 |
| B5 | 0.428 |
| B6 | 1.79 |
| B7 | 1.39 |
| B8 | 0.365 |
| B9 | 7.83 |
| B10 | 2.36 |
| B11 | 10.2 |
| B12 | 0.256 |
| B13 | 0.474 |
| B14 | 0.284 |
| B15 | 3.17 |
| B16 | 0.466 |
| B17 | 0.347 |
| B18 | 0.732 |
| B19 | 6.94 |
| B20 | 2.33 |
| B21 | 0.37 |
| B22 | 0.394 |
